Some of the results follow. At the low end of the ranking, values are background and their order means little.
The sequences below were run against MAX:MAX (p21) (UniProt P61244-2) (assay: protein-binding microarray (anti-MAX antibody)). Conditions: PBM: 15 mM Tris-HCl pH 7.5, 100 mM KCl, 0.075% NP40, 7.5 mM beta-mercaptoethanol, 375 ng/ul BSA, 8 ng/ul poly(dA-dT):(dA-dT), 550 ng complex, 60 min, room …; high values mean tight binding; double strand, one strand shown; sequences stand for … in CCGGC…TTAATAGCTAAGATTACTATATCGACG.
TGAATATCGGTA showed a binding signal (log2 normalized fluorescence) of -1.05.
TGATTCAACGTA gave a binding signal (log2 normalized fluorescence) of -0.44.
TGATCGCATGTA gave a binding signal (log2 normalized fluorescence) of 1.97.
In the case of TGAGGCGGCGTA, the binding signal (log2 normalized fluorescence) is reported as -0.641.
In the case of TGAGTCCGAGTA, the binding signal (log2 normalized fluorescence) is reported as -1.17.
CTCATCGCGCCT showed a binding signal (log2 normalized fluorescence) of 0.579.
For TGAATAGAAGTA, the binding signal (log2 normalized fluorescence) was -1.13.
TGACTCGTGCTA was tested, and the binding signal (log2 normalized fluorescence) was 3.13.
For TGACGTGTAGTA, the binding signal (log2 normalized fluorescence) was 0.928.
TGAATGTGTGTA was tested, and the binding signal (log2 normalized fluorescence) was 1.07.
TGATTAGTCGTA was tested, and the binding signal (log2 normalized fluorescence) was -1.33.
TGAGCACTGGTA was tested, and the binding signal (log2 normalized fluorescence) was -0.181.
For TGAGCAGTTGTA, the binding signal (log2 normalized fluorescence) was -0.641.
Work on TGACGGAAGGTA yielded a binding signal (log2 normalized fluorescence) of -0.707.
TGACACGTGTTT gave a binding signal (log2 normalized fluorescence) of 3.34.
TGACGAAACGTA showed a binding signal (log2 normalized fluorescence) of -0.518.
Work on TGAGGTTGCGTA yielded a binding signal (log2 normalized fluorescence) of -0.504.
TGAGTTTCAGTA was tested, and the binding signal (log2 normalized fluorescence) was -1.29.
Work on TGATCTGACGTA yielded a binding signal (log2 normalized fluorescence) of -0.861.
For TGAAGCGCAGTA, the binding signal (log2 normalized fluorescence) was -0.514.
In the case of TGTCGCGTGGTA, the binding signal (log2 normalized fluorescence) is reported as 3.24.
In the case of TGATTGAAGGTA, the binding signal (log2 normalized fluorescence) is reported as -0.899.
In the case of TGATATCAAGTA, the binding signal (log2 normalized fluorescence) is reported as -0.796.
Sequence TGACAGGTGGTT has a binding signal (log2 normalized fluorescence) of 2.77.
TGACCCATGGTT gave a binding signal (log2 normalized fluorescence) of 2.
AGACACTTTGTA gave a binding signal (log2 normalized fluorescence) of 0.324.
With TGAGATCAAGTA the binding signal (log2 normalized fluorescence) was -1.05.
TGAACATGGGTA was tested, and the binding signal (log2 normalized fluorescence) was 1.86.
TGATAGCCTGTA was tested, and the binding signal (log2 normalized fluorescence) was -0.436.
TGAAGGATGGTA was tested, and the binding signal (log2 normalized fluorescence) was -0.0298.
TGAGGACAGGTA showed a binding signal (log2 normalized fluorescence) of -0.599.
Sequence TGATGTTGCGTA has a binding signal (log2 normalized fluorescence) of 0.203.
Work on TGATCTCATGTA yielded a binding signal (log2 normalized fluorescence) of 1.36.
Sequence TGATAAGAAGTA has a binding signal (log2 normalized fluorescence) of -1.09.
TGATTTGAAGTA showed a binding signal (log2 normalized fluorescence) of -0.941.
TGACCGATGGTA gave a binding signal (log2 normalized fluorescence) of -0.142.
TGACTCGGTGTA was tested, and the binding signal (log2 normalized fluorescence) was -0.356.
With TGACAGTACGTA the binding signal (log2 normalized fluorescence) was -0.101.
TGAATTTTAGTA was tested, and the binding signal (log2 normalized fluorescence) was -1.2.
With TGAGGCGTGGCA the binding signal (log2 normalized fluorescence) was 2.67.
Sequence TGACTCACAGTA has a binding signal (log2 normalized fluorescence) of -0.188.
TGAGCGAGTGTA was tested, and the binding signal (log2 normalized fluorescence) was 0.00325.
TGATAGGGGGTA gave a binding signal (log2 normalized fluorescence) of 1.2.
For TTACGCGTGGTA, the binding signal (log2 normalized fluorescence) was 3.27.
In the case of TGACAAGTGGTA, the binding signal (log2 normalized fluorescence) is reported as 0.53.
ACGCACGTGGTA gave a binding signal (log2 normalized fluorescence) of 3.29.
With TGAGCGTGTGTA the binding signal (log2 normalized fluorescence) was 2.08.
With TGACATGAGGTA the binding signal (log2 normalized fluorescence) was 2.52.
TGAGTTGATGTA was tested, and the binding signal (log2 normalized fluorescence) was -0.409.
For TGAGGGCGGGTA, the binding signal (log2 normalized fluorescence) was 0.319.
For TGATTCAGTGTA, the binding signal (log2 normalized fluorescence) was -0.789.
Sequence TGAACCGAGGTA has a binding signal (log2 normalized fluorescence) of -0.398.
TCGTCCCCTGAC was tested, and the binding signal (log2 normalized fluorescence) was -0.73.
Sequence TGACACCTCGTA has a binding signal (log2 normalized fluorescence) of 0.482.
Work on GGGCACGTGGTA yielded a binding signal (log2 normalized fluorescence) of 3.35.
For TGAATTACTGTA, the binding signal (log2 normalized fluorescence) was -0.662.
Work on TGAAAGTACGTA yielded a binding signal (log2 normalized fluorescence) of -0.583.
TGAACCAGTGTA was tested, and the binding signal (log2 normalized fluorescence) was -0.309.
With TGTGTCGTGGTA the binding signal (log2 normalized fluorescence) was 0.865.
TGAGCTTGTGTA was tested, and the binding signal (log2 normalized fluorescence) was -0.232.
In the case of TGACTGCGGGTA, the binding signal (log2 normalized fluorescence) is reported as -0.115.
TGAGTTCAGGTA was tested, and the binding signal (log2 normalized fluorescence) was -0.866.
TCATAAGTGGTA was tested, and the binding signal (log2 normalized fluorescence) was 0.241.
Sequence TGATGAATCGTA has a binding signal (log2 normalized fluorescence) of -0.397.
In the case of TGATGCTGGGTA, the binding signal (log2 normalized fluorescence) is reported as -0.147.
Work on TGACGGTAGGTA yielded a binding signal (log2 normalized fluorescence) of -0.487.
Sequence TGAACGATTGTA has a binding signal (log2 normalized fluorescence) of -0.635.
TGATCTGATGTA showed a binding signal (log2 normalized fluorescence) of -0.514.
TGACTTGCCGTA showed a binding signal (log2 normalized fluorescence) of -0.0827.
TGAGCTTCTGTA showed a binding signal (log2 normalized fluorescence) of -0.668.
For TGACGCGTGCCA, the binding signal (log2 normalized fluorescence) was 3.24.
For TGATGGTCCGTA, the binding signal (log2 normalized fluorescence) was 0.325.
Sequence TGAGTAGGCGTA has a binding signal (log2 normalized fluorescence) of -1.32.
Work on TGAACCGGGGTA yielded a binding signal (log2 normalized fluorescence) of -0.0822.
Sequence TGAGCGAAGGTA has a binding signal (log2 normalized fluorescence) of -0.93.
With TGACACGTGTAG the binding signal (log2 normalized fluorescence) was 3.17.
Sequence TGACACGTGCTA has a binding signal (log2 normalized fluorescence) of 3.17.
For TGATGGGAAGTA, the binding signal (log2 normalized fluorescence) was -0.343.
TCACACGTGGTT gave a binding signal (log2 normalized fluorescence) of 3.32.
Sequence TGAAGACCAGTA has a binding signal (log2 normalized fluorescence) of -0.661.
With GCCCACGTGGTA the binding signal (log2 normalized fluorescence) was 3.43.
In the case of TGAATCTCCGTA, the binding signal (log2 normalized fluorescence) is reported as -1.18.
Work on TGAATACTAGTA yielded a binding signal (log2 normalized fluorescence) of -0.595.
TGACACGTGATG showed a binding signal (log2 normalized fluorescence) of 3.13.
TGATCCCAAGTA gave a binding signal (log2 normalized fluorescence) of -0.758.
TGAATAGGTGTA gave a binding signal (log2 normalized fluorescence) of -0.568.
Sequence TGAGCCCTCGTA has a binding signal (log2 normalized fluorescence) of -0.825.
TGACCACTTGTA was tested, and the binding signal (log2 normalized fluorescence) was 0.251.
TGACTTCGGGTA showed a binding signal (log2 normalized fluorescence) of -0.884.
TTACAAGTGTTA gave a binding signal (log2 normalized fluorescence) of 0.37.
For TGAAATACAGTA, the binding signal (log2 normalized fluorescence) was -0.598.
Work on TCACACGTCGTA yielded a binding signal (log2 normalized fluorescence) of 2.63.
Work on TGAAAACACGTA yielded a binding signal (log2 normalized fluorescence) of 0.876.
For TGAAAGCTAGTA, the binding signal (log2 normalized fluorescence) was -1.23.
With TGAAAAATGGTA the binding signal (log2 normalized fluorescence) was -0.502.
Sequence TGACTCTCGGTA has a binding signal (log2 normalized fluorescence) of -0.779.
TGAAAACGCGTA was tested, and the binding signal (log2 normalized fluorescence) was 0.5.
In the case of TGATGCATCGTA, the binding signal (log2 normalized fluorescence) is reported as 0.17.
TGAGAGGTGGTA gave a binding signal (log2 normalized fluorescence) of -0.21.
In the case of TGACACGTCATG, the binding signal (log2 normalized fluorescence) is reported as 1.8.
Work on TGAAAAGACGTA yielded a binding signal (log2 normalized fluorescence) of -0.657.
With TGATTATGGGTA the binding signal (log2 normalized fluorescence) was -0.773.
TGACTTACTGTA gave a binding signal (log2 normalized fluorescence) of -0.388.
For TGAGTTTTTGTA, the binding signal (log2 normalized fluorescence) was -1.36.
Work on TGACTCGCAGTA yielded a binding signal (log2 normalized fluorescence) of -0.3.
TGAGGTAGGGTA gave a binding signal (log2 normalized fluorescence) of -0.447.
Work on TGAATGCTAGTA yielded a binding signal (log2 normalized fluorescence) of -0.0965.
For CCTAATTATCAA, the binding signal (log2 normalized fluorescence) was -1.2.
TGAAAGAAGGTA showed a binding signal (log2 normalized fluorescence) of -0.725.
For TGAATAGCCGTA, the binding signal (log2 normalized fluorescence) was -1.21.
Work on TGAGGGTGCGTA yielded a binding signal (log2 normalized fluorescence) of 0.326.
TCCTATTCGCGA was tested, and the binding signal (log2 normalized fluorescence) was -1.45.
For TGGTTCGTGGTA, the binding signal (log2 normalized fluorescence) was 0.191.
Work on TGAATACGTGTA yielded a binding signal (log2 normalized fluorescence) of 0.346.
For TGAACTTGAGTA, the binding signal (log2 normalized fluorescence) was -0.584.
TGGCACGTAGTA was tested, and the binding signal (log2 normalized fluorescence) was 1.57.
Work on TGATAACCAGTA yielded a binding signal (log2 normalized fluorescence) of -0.301.
TGACCCCCGGTA was tested, and the binding signal (log2 normalized fluorescence) was -0.184.
With TGACCCGCGGTA the binding signal (log2 normalized fluorescence) was 0.505.
In the case of TGACAAGAAGTA, the binding signal (log2 normalized fluorescence) is reported as -0.507.
Work on TGAACGTACGTA yielded a binding signal (log2 normalized fluorescence) of -0.307.
TCACACGTAGCA gave a binding signal (log2 normalized fluorescence) of 2.4.
Sequence TGAGCTGAAGTA has a binding signal (log2 normalized fluorescence) of -0.814.
TGAGATGCAGTA gave a binding signal (log2 normalized fluorescence) of -0.489.
For TGACCGGCCGTA, the binding signal (log2 normalized fluorescence) was -0.507.
In the case of TGACGGCGTGTA, the binding signal (log2 normalized fluorescence) is reported as 2.34.
With TGAATCGCCGTA the binding signal (log2 normalized fluorescence) was -0.913.
Sequence TGACGAGATGTA has a binding signal (log2 normalized fluorescence) of -0.0441.
TGAAGTTAGGTA showed a binding signal (log2 normalized fluorescence) of -0.789.
TGAGCTGGAGTA showed a binding signal (log2 normalized fluorescence) of -0.718.
Sequence TGAAGTTGAGTA has a binding signal (log2 normalized fluorescence) of -0.854.
TGACGCGCGGTA gave a binding signal (log2 normalized fluorescence) of 1.62.
TGACGAAAAGTA showed a binding signal (log2 normalized fluorescence) of -0.906.
Work on TGAGTCATCGTA yielded a binding signal (log2 normalized fluorescence) of -0.561.
For TGAAAGCTGGTA, the binding signal (log2 normalized fluorescence) was -0.815.
TGAAGTATCGTA was tested, and the binding signal (log2 normalized fluorescence) was -0.556.
Work on TGACGTGTGGTT yielded a binding signal (log2 normalized fluorescence) of 1.65.
In the case of TGAGAACAGGTA, the binding signal (log2 normalized fluorescence) is reported as -0.504.

Reference: article PMC5515408
